# Source: PubChem BioAssay (NCATS)
# The inconclusive results got no clear call from the source; some entries with a clear call stand among them for comparison. A call without a number means that no potency is given here. Where the call is inconclusive, the potency comes from a doubtful curve fit. The source made the active and inactive calls. Calls follow the shape of the dose curve; as a rule, active = well fitted cell-killing curve with a large enough effect; inconclusive = small, poorly fitted or top-dose-only effect, or effect the other way; inactive = flat fitted curve, though single readings scatter.
# Tested on: SKOV3
# Assay: Primary qHTS to identify gynecologic anti-cancer compounds using libraries of approved drugs and bioactive compounds (AID 1345084); also: nearly all actives have a fitted effect of over 55% in size
# Conditions: Gynecologic cancer cell panel viability, ATPlite luminescence, 48 h; series mostly up to 57.5 µM
# Method in brief: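 48 h compound exposure at 37 C, 5% CO2; five-point qHTS. ATPlite luminescence readout of cell ATP.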
# Potency is read from the fitted curve at half-maximal effect; tags tell the direction and shape of the fitted curve.
row,SMILES,Potency
1,C[C@]12CC[C@@H](O[C@@H]3O[C@H](CO)[C@@H](O)[C@H](O)[C@H]3O)C[C@@]1(O)CCC1C2CC[C@]2(C)[C@@H](C3=CC(=O)OC3)CC[C@]12O (stereo partly drawn),active: 0.355 µM
2,CC1=CC2/C=C(\C)CCC(O)C(O)/C=C/C(=O)C23C(=O)NC(CC(C)C)C3C1C (stereo not drawn),"inconclusive: 20 µM [cytotoxic, partial curve, poor fit]"
3,Cc1ccc2c(c1)[C@H]1CN(C)CC[C@H]1N2C(=O)CSc1nnnn1-c1ccc(Cl)cc1,inactive
4,NC(=O)c1cc([N+](=O)[O-])cc([N+](=O)[O-])c1,inactive
5,Oc1ccc2[nH]cc(CCCCN3CC=C(c4ccccc4)CC3)c2c1,inactive
6,CCN1CC2(COC)C3[C@@H](OC)C4C1C3(C1C[C@]3(O)[C@H](OC(=O)c5ccccc5)C1[C@]4(OC(C)=O)[C@@H](O)[C@@H]3OC)[C@H](OC)C[C@H]2O (stereo partly drawn),inactive
7,CCCCC/C=C\C/C=C\C/C=C\C/C=C\CCCC(=O)NCC(=O)O,"inconclusive: 8.91 µM [cytotoxic, single point]"
8,CC(C)[C@H]1OC(=O)[C@H](Cc2ccccc2)N(C)C(=O)[C@@H](C(C)C)OC(=O)[C@H](Cc2ccccc2)N(C)C(=O)[C@@H](C(C)C)OC(=O)[C@H](Cc2ccccc2)N(C)C1=O,"inconclusive: 12.6 µM [cytotoxic, single point]"
